Results reported in the supplement of paper PMC9334596.
Several values for one entry are separate records, joined by “and”; a condition that tells them apart may be missing. Identical values can stand only once. In all, about 5,300 compounds were measured (“PER2::LUC luminescence relative to vehicle control”: median about 0.96, highest 2% from about 1.3 on). Some of the results follow.

Test system: mPer2Luc MEF
Test: PER2::LUC luminescence relative to vehicle control (fold of vehicle); higher = higher PER2::LUC reporter signal
Details: 10 µM
Method in brief: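 The value is PER2::LUC luminescence expressed as fold of vehicle control. Mouse embryonic fibroblasts carrying the mPer2Luc reporter were seeded at ~3000 cells per well in 384-well plates and grown in DMEM with 10% FBS at 37 °C and 5% CO2. Compounds from commercial libraries were added at 10 μM 48 h after seeding, and luminescence was read with the ONE-Glo luciferase assay system 24 h and 30 h after treatment, followed by an alamarBlue viability assay.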

Row | SMILES | PER2::LUC luminescence (time after treatment 24 h) | PER2::LUC luminescence (time after treatment 30 h)
1 | CCN(CC)C(=O)NC1C=C2c3cccc4[nH]cc(c34)CC2N(C)C1 (stereo unspecified) | 0.813 | 0.856
2 | c1ccc2nc(N3CCNCC3)ccc2c1 | 0.463 and 0.642 | 0.845 and 0.652
3 | C[N+](C)(C)CCCCCCCCCC[N+](C)(C)C | 1.07 and 1.03 | 0.977 and 0.832
4 | C=C(C)c1cc2cc(C(C)=O)c(O)cc2o1 | 1.31 | 1.39
5 | Cc1cc(OC(=O)N2CCCCC2)c(C(C)C)cc1[N+](C)(C)C | 0.966 | 0.919
6 | CC1C2Cc3ccc(O)cc3C1(C)CCN2CC1CC1 (single isomer, unassigned; (+)) | 0.923 | 0.817
7 | C[C@]12CC[C@H](O)C[C@H]1CC[C@@H]1[C@@H]2CC[C@]2(C)[C@@](O)(c3ccoc3)CC[C@]12O | 1.03 | 0.965
8 | CN1C[C@H](C(=O)N[C@]2(C)O[C@@]3(O)[C@@H]4CCCN4C(=O)[C@H](Cc4ccccc4)N3C2=O)C[C@@H]2c3cccc4[nH]cc(c34)C[C@H]21 | 0.791 and 0.71 | 0.733 and 0.71
9 | O=C1NCN(c2ccccc2)C12CCN(CC1COc3ccccc3O1)CC2 (stereo unspecified) | 1.07 | 0.997
10 | C[N+]1(C)[C@@H]2CC[C@H]1C[C@@H](OC(=O)C(CO)c1ccccc1)C2 (stereo partly specified) | 1.1 and 1.04 and 0.958 | 0.994 and 1.02 and 0.907
11 | C/C=C1/C[C@@H](C)[C@@](C)(O)C(=O)OCC2=CCN3CC[C@@H](OC1=O)[C@@H]23 | 1.08 | 1.07
12 | CN1c2ccccc2C(NCCCCCCC(=O)O)c2ccc(Cl)cc2S1(=O)=O (stereo unspecified) | 1.05 | 1.09
13 | COc1ccc2[nH]cc(CCNCc3ccc(Br)cc3)c2c1 | 0.772 | 0.692
14 | Clc1cccc(N2CCNCC2)c1 | 0.821 | 0.77
15 | NC(CCP(=O)(O)O)C(=O)O (racemic) | 1.05 | 0.951
16 | COc1ccc(C(C)(C)C)cc1CN[C@H]1C2CCN(CC2)[C@H]1C(c1ccccc1)c1ccccc1 | 0.868 | 0.939
17 | C#C[C@]1(O)CC[C@H]2[C@@H]3CCC4=Cc5nc6nc7ccccc7n6cc5C[C@]4(C)[C@H]3CC[C@@]21C | 1.05 | 1.15
18 | NCCc1cc(O)c(O)cc1O | 0.91 | 0.95
19 | CCNC(=O)C[C@@H]1N=C(c2ccc(Cl)cc2)c2cc(OC)ccc2-n2c(C)nnc21 | 0.153 and 0.159 and 0.137 | 0.196 and 0.173 and 0.128
20 | C=CCN(C1=NCCN1)c1c(Cl)cccc1Cl | 0.832 | 0.787
21 | O=P(O)(NCCCl)NCCCl | 1.02 | 1.08
22 | O=C1C[C@@H]2OCC=C3CN4CC[C@]56c7ccccc7N1[C@H]5[C@H]2[C@H]3C[C@H]46 | 0.981 and 0.867 and 0.844 | 0.831 and 0.943 and 0.963
23 | N#Cc1nn(-c2c(Cl)cc(C(F)(F)F)cc2Cl)c(N)c1[S+]([O-])C(F)(F)F (stereo unspecified) | 0.855 | 0.843
24 | CC[C@@]1(O)C(=O)OCc2c1cc1n(c2=O)Cc2cc3ccccc3nc2-1 | 0.767 | 0.821
25 | CC1(N2CCC(n3c(C4CCCNC4)nc4ccccc43)CC2)CCCCCCC1 (stereo unspecified) | 0.527 | 0.558

Row | SMILES | PER2::LUC luminescence (time after treatment 24 h) | PER2::LUC luminescence (time after treatment 30 h)
26 | C[N+]1(C)CCc2cc3c(cc2C1C1OC(=O)c2c1ccc1c2OCO1)OCO3 (single isomer, unassigned; (-)) | 0.997 | 0.969
27 | CNc1ccc(C(=O)CC(O)CCC(C)C2OC(=O)CC(O)CC(=O)CC(O)CC(O)CC(O)CC(O)CC3(O)CC(O)C(C(=O)OC)C(CC(O[C@@H]4O[C@H](C)[C@@H](O)[C@H](N)[C@@H]4O)/C=C/C=C/C=C/C=C/C=C/C=C/C=C/C2C)O3)cc1.COC(=O)C1C(O)CC2(O)CC(O)CC(O)CC(O)CC(O)CC(=O)CC(O)CC(=O)OC(C(C)CCC(O)CC(=O)c3ccc(N)cc3)C(C)/C=C/C=C/C=C/C=C/C=C/C=C/C=C/C(O[C@@H]3O[C@H](C)[C@@H](O)[C@H](N)[C@@H]3O)CC1O2 (stereo partly specified) | 0.541 | 0.777
28 | Cc1ncc(CNC(=O)N(CCCl)N=O)c(N)n1 | 1.04 and 1.05 | 1.04 and 0.853
29 | CN1CCCCC1c1ccc(-c2cccnc2)nc1 (stereo unspecified) | 1.07 | 1.05
30 | C[C@H]1CCC/C=C/[C@@H]2C[C@H](O)C[C@H]2[C@H](O)/C=C/C(=O)O1 | 1.15 | 1.13
31 | CCC12C=CCN3CC[C@@]4(c5ccc(OC)cc5N(C)[C@H]4[C@@](O)(C(=O)OC)[C@@H]1OC(C)=O)[C@@H]32 (stereo partly specified) | 0.932 | 0.959
32 | CC[C@@H](C)C(=O)O[C@H]1[C@H](O)[C@H]2[C@@H](CN3C[C@@H](C)CC[C@H]3[C@@]2(C)O)[C@@H]2C[C@]34O[C@]5(O)[C@@H](OC(=O)[C@](C)(O)[C@@H](C)O)CC[C@@]3(C)[C@@H]5[C@@H](OC(C)=O)[C@@H](OC(C)=O)[C@H]4[C@@]21O (stereo in doubt) | 1.02 | 0.887
33 | C[N+](C)(C)CC#CCOC(=O)Nc1cccc(Cl)c1 | 1.01 | 0.91
34 | CN1C[C@@H](NS(=O)(=O)N(C)C)C[C@@H]2c3cccc4c3c(cn4C)C[C@H]21 | 0.98 | 0.864
35 | C[C@@H]1C[C@H]2CC[C@H](O2)[C@H](C)C(=O)O[C@@H](C)C[C@@H]2CC[C@@H](O2)[C@@H](C)C(=O)O[C@H](C)C[C@H]2CC[C@@H](O2)[C@H](C)C(=O)O[C@@H](C)C[C@@H]2CC[C@@H](O2)[C@@H](C)C(=O)O1 | 0.195 | 0.197
36 | CC(C)(O)C(Cl)(Cl)Cl | 0.988 | 0.812
37 | Oc1cccc2cccnc12 | 1.05 and 0.704 | 0.978 and 1.09
38 | CN1C(=O)CN=C(c2ccccc2Cl)c2cc(Cl)ccc21 | 0.902 | 0.953
39 | N#C/C(=C\c1ccc(O)cc1)C(=O)O | 1.01 | 0.99
40 | CC(=O)Oc1ccc(/C=C/c2cc(OC(C)=O)cc(OC(C)=O)c2)cc1 | 1.76 | 1.65
41 | COc1ccc(CCN)cc1OC | 1.06 | 1.13
42 | CC1=C(O)C(=O)C=C2C1=CC=C1[C@@]2(C)CC[C@@]2(C)[C@@H]3C[C@](C)(C(=O)O)CC[C@]3(C)CC[C@]12C | 1.29 | 1.15
43 | OC1CCCCC1N1CCC(c2ccccc2)CC1 (racemic) | 0.964 | 0.953
44 | CCCN1C[C@H](CSC)C[C@@H]2c3cccc4[nH]cc(c34)C[C@H]21 | 0.869 and 0.875 | 0.878 and 0.855
45 | CCCCc1ccc(C(=O)O)nc1 | 0.941 | 0.903
46 | CN1CC[C@]23CCCC[C@H]2[C@H]1Cc1ccc(O)cc13 | 0.821 | 0.846
47 | N.N.[Cl][Pt][Cl] | 0.873 | 0.677
48 | CC(=O)Nc1ccc(Cc2ccc(NC(C)=O)cc2)cc1 | 1.07 | 1
49 | COc1cc(-n2c(=S)[nH]c3ccccc3c2=O)c(Cl)cc1Cl | 0.895 | 0.877
50 | Oc1ccc2c3c1O[C@H]1c4[nH]c5c(c4C[C@@]4(O)[C@@H](C2)N(CC2CC2)CC[C@]314)C[C@@]1(O)[C@H]2Cc3ccc(O)c4c3[C@@]1(CCN2CC1CC1)[C@H]5O4 | 1.1 | 1.07

Row | SMILES | PER2::LUC luminescence (time after treatment 24 h) | PER2::LUC luminescence (time after treatment 30 h)
51 | O=C(O[C@H]1C[C@H]2CC[C@@H](C1)[N+]21CCCC1)C(O)(c1ccccc1)c1ccccc1 | 0.95 | 0.776
52 | Cc1[nH]c2ccc(O)cc2c1CCN | 1.08 and 1.05 | 0.977 and 1.35
53 | C=CCN1CCc2cccc3c2[C@H]1Cc1ccc(O)c(O)c1-3 | 0.895 | 0.779
54 | NC(=O)[C@@H]1CCCN1C(=O)[C@H](Cc1ccccc1)NC(=O)[C@@H]1CCCN1C(=O)[C@@H](N)Cc1ccc(O)cc1 | 1.01 | 0.94
55 | COc1ccc(C(=O)N2CCCC2=O)cc1 | 0.979 | 0.999
56 | CCCCCCCCCCCCCC(=O)O[C@@H]1[C@@H](C)[C@@]2(O)[C@@H](C=C(CO)C[C@]3(O)C(=O)C(C)=C[C@@H]23)[C@@H]2C(C)(C)[C@]12OC(C)=O | 1.26 | 1.12
57 | O=C1/C(=C/c2ccccc2)C[C@@]2(O)[C@H]3Cc4ccc(O)c5c4[C@@]2(CCN3CC2CC2)[C@H]1O5 | 0.553 | 0.22
58 | CCS(=O)(=O)Nc1cccc(C(=C2CCCCC2)c2cnc[nH]2)c1 | 1.12 | 1.2
59 | O=Cc1cn(Cc2ccc(Cl)cc2)c2ccccc12 | 0.923 | 0.941
60 | CC[C@@]1(O)C[C@H](O)c2c(cc3c(c2O)C(=O)c2c(O)ccc(O)c2C3=O)[C@H]1C(=O)OC | 0.79 | 1.05
61 | O=C(O)CCCc1ccc(N(CCCl)CCCl)cc1 | 0.947 and 1.07 | 1.12 and 0.959
62 | NCC(CS(=O)(=O)O)c1ccc(Cl)cc1 (stereo unspecified) | 0.909 | 1.05
63 | COC(=O)[C@@H]1C[C@H](OC(C)=O)C(=O)[C@H]2[C@@]1(C)CC[C@H]1C(=O)O[C@H](c3ccoc3)C[C@]21C | 1.08 | 0.999
64 | CC[C@@H](C(N)=O)N1CCCC1=O | 1.18 | 0.943
65 | NCC(O)c1cc(O)c(O)cc1F (stereo unspecified) | 1.03 | 0.878
66 | C[N+]1(C)CCOC(O)(c2ccc(-c3ccc(C4(O)C[N+](C)(C)CCO4)cc3)cc2)C1 (stereo unspecified) | 0.878 | 1.1
67 | Nc1ccncc1 | 1.06 and 1.04 | 1.05 and 1.02
68 | COc1ccc(-n2nc(C(F)(F)F)cc2-c2ccc(Cl)cc2)cc1 | 1.09 | 1.2
69 | CN(C)Cc1c[nH]c2ccccc12 | 0.905 | 1.02
70 | CCCCn1cc(C(=O)c2cccc3ccccc23)c2ccccc21 | 0.856 | 0.919
71 | CC[C@H](C)[C@H]1O[C@]2(C=C[C@@H]1C)C[C@@H]1C[C@@H](C/C=C(\C)[C@@H](O[C@H]3C[C@H](OC)[C@@H](O[C@H]4C[C@H](OC)[C@@H](O)[C@H](C)O4)[C@H](C)O3)[C@@H](C)/C=C/C=C3\CO[C@@H]4[C@H](O)C(C)=C[C@@H](C(=O)O1)[C@]34O)O2.CO[C@H]1C[C@H](O[C@H]2[C@H](C)O[C@@H](O[C@@H]3/C(C)=C/C[C@@H]4C[C@@H](C[C@]5(C=C[C@H](C)[C@@H](C(C)C)O5)O4)OC(=O)[C@@H]4C=C(C)[C@@H](O)[C@H]5OC/C(=C\C=C\[C@@H]3C)[C@]54O)C[C@@H]2OC)O[C@@H](C)[C@@H]1O | 0.781 | 0.858
72 | CO[C@H]1CC=C2CCN3CCC4=C(CC(=O)OC4)[C@]23C1 | 1.06 | 0.84
73 | C[C@]12CCC(=O)C=C1CC[C@@H]1[C@@H]2C(=O)C[C@]2(C)C(=O)CC[C@@H]12 | 0.947 | 0.92
